# In all, about 330,000 compounds went through this assay and about 300 (0.091%) were called active. This list was built around the results that the source calls inconclusive (neither active nor inactive); the mix of calls is not that of the screen. Calls come from the whole dose curve; as a rule, active = well fitted inhibition curve with a large enough effect; inconclusive = small, poorly fitted or top-dose-only effect, or effect the other way, or another doubt; inactive = no such curve, though single readings can be large or run the other way. Potencies of inconclusive entries are left out as doubtful fits.
# Molecular target: Lysosomal acid glucosylceramidase (Homo sapiens) (UniProt P04062)
# Experiment: qHTS Assay for Inhibitors and Activators of N370S glucocerebrosidase as a Potential Chaperone Treatment of Gaucher Disease;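 for activity change, negative = inhibition: 0% = full enzyme activity and -100% = no enzyme basal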
# Settings: N370S GC spleen homogenate, 4MU-glucoside fluorescence; activity change, negative = inhibition: at 59.4 µM (top of the series) unless noted
# Potency is the fitted concentration of half-maximal effect.
Structure (SMILES),Potency,"activity change, negative = inhibition"
NS(=O)(=O)c1ccc2c(c1)C1C=CCC1C(C1CC=CCC1)N2 (stereo unspecified),inactive,–
Cn1cc(C(=O)N2CCN(C(=O)c3ccco3)CC2)c2c3ccccc3n(C)c2c1=O,inactive,–
CC(C)(C)OC(=O)COc1cc(O)c2c(=O)cc(-c3ccccc3)oc2c1,"inconclusive [activator, partial curve]",–
Cc1sc2nc(CSc3ccccc3)nc(N3CCOCC3)c2c1C,"inconclusive [activator, partial curve]",–
CCN(CC)CCCNC(=S)N(CCCO)Cc1cc2cc3c(cc2[nH]c1=O)OCO3,"inconclusive [activator, partial curve]",–
Nc1nnc(-c2ccc(Cl)cc2Cl)s1,"inconclusive [inhibitor, full curve, poor fit]",–
CC1(C)CC2CC(C)(CN2C(=O)c2cccs2)C1 (stereo unspecified),"inconclusive [activator, partial curve, poor fit]",–
CC(CCc1ccc(O)cc1)NCCC(c1ccccc1)c1ccccc1 (stereo unspecified),"inconclusive [inhibitor, single point]",–
CCOC(=O)c1cc(CC)sc1/N=C/C1=C(O)CC(C)(C)CC1=O,"inconclusive [activator, partial curve]",–
O=[N+]([O-])c1ccc(-c2nc(Nc3ccc(O)cc3)c3ccccc3n2)cc1,"inconclusive [inhibitor, full curve, poor fit]",–
O=C(c1ccccc1)N1CCCC(c2ccc(Cl)cc2)=N1,"inconclusive [activator, single point]",–
CN(C)Cc1c(O)ccc2c3c(c(=O)oc12)CCCCC3,"inconclusive [activator, partial curve]",–
CC1(C(=O)NC2CCCC2)CCC(=O)N1Cc1ccc2c(c1)OCO2 (stereo unspecified),"inconclusive [inhibitor, full curve, poor fit]",–
O=c1cc(-c2ccccc2O)oc2c1ccc1ccccc12,inactive,–
Clc1ccc(CSc2cc3c(nn2)-c2ccccc2CC3)cc1Cl,"inconclusive [activator, partial curve]",–
CCc1cc2c(-c3ccccc3)cc(=O)oc2cc1OC(C)C(C)=O (stereo unspecified),"inconclusive [activator, single point]",–
COc1ccc(C)cc1S(=O)(=O)NCC(c1ccc2c(c1)OCO2)N1CCOCC1 (stereo unspecified),"inconclusive [inhibitor, single point]",–
Cc1cccc(NC(=O)CSc2ncnc3sc(C)cc23)c1,"inconclusive [activator, single point]",–
Cc1cc(C)nc(SCc2nnc(SCC(=O)N3CCCc4ccccc43)o2)n1,–,inconclusive: 27.1% [activator]
COc1c(C(=O)NCCSC(C)(C)C)ccc2ccccc12,"inconclusive [activator, partial curve, poor fit]",–
COc1ccc(OC)c(CCNC(=O)c2ccc3c(c2)N(Cc2ccc(F)cc2)CCS3)c1,"inconclusive [activator, single point]",–
COc1cccc(C(=O)N(Cc2nc(-c3ccc(C)cc3)no2)C(C)C)c1,"inconclusive [activator, partial curve]",–

Structure (SMILES),Potency,"activity change, negative = inhibition"
O=C(O)c1cccnc1SCC(=O)C12CC3CC(CC(C3)C1)C2,inactive,–
FC(F)(F)c1cc(-c2cccs2)nc(-n2cc(Br)cn2)n1,"inconclusive [activator, single point]",–
Cc1cc(C)n2nc(SCC(=O)NC3CCCCC3)nc2n1,"inconclusive [activator, single point]",–
O=C1CCC[C@H]2OC12[C@@H](O)CCc1ccccc1 (stereo partly specified),–,inactive: 3.19% [at 12.8 µM]
CN(C)c1ccc(C(=O)c2ccccc2)cc1,"inconclusive [activator, partial curve]",–
COCCNc1nc(SCc2ccccc2)nc2sc3c(c12)CCC3,"inconclusive [activator, partial curve]",–
O=C(NC12CC3CC(CC(C3)C1)C2)c1ccc(-c2ccc(Cl)cc2)o1,"inconclusive [activator, partial curve]",–
CC(C)Cn1c(-c2cc(Br)ccc2F)nc2c1c(=O)[nH]c(=O)n2CC(C)C,"inconclusive [activator, single point]",–
O=C(CNC(=S)N(CCCN1CCOCC1)Cc1cccs1)NC1CCCC1,"inconclusive [inhibitor, partial curve]",–
Cc1cc(N)n2nc(-c3ccc(C(C)(C)C)cc3)cc2n1,active: 10 µM,–
C=C(C)CSc1nc2c(c(=O)[nH]c(=O)n2C)n1Cc1ccccc1,"inconclusive [activator, partial curve]",–
O=c1c2ccccc2nnn1Cc1ccccc1Cl,inactive,–
O=c1cc(-c2ccccc2)nc2c(-c3ccccc3)c(C(F)(F)F)[nH]n12,"inconclusive [activator, single point]",–
Cc1c(CCC(=O)NCCCN2CCCC2=O)c(=O)oc2cc(O)ccc12,"inconclusive [activator, partial curve]",–
COc1ccc(S(=O)(=O)N2CCN(C(=O)/C=C/c3ccco3)CC2)cc1,inactive,–
Cc1ccn2c(NC3CCCC3)c(-c3ccccn3)nc2c1,inactive,–
Cc1ccc2nc(NC(=O)C3CCN(S(=O)(=O)c4cc([N+](=O)[O-])ccc4Cl)CC3)sc2c1,inactive,–
CC(=O)Nc1ccc(S(=O)(=O)NNC(=O)COc2cc(C)ccc2C(C)C)cc1,"inconclusive [inhibitor, full curve, poor fit]",–
Cc1cc(C)c(NC(=O)COC(=O)c2ccc([N+](=O)[O-])s2)c(C)c1,"inconclusive [inhibitor, single point]",–
CC1CCCCN1CCCNC(=O)Cn1c(=O)c2cccn2c2ccccc21 (stereo unspecified),"inconclusive [activator, partial curve]",–
COc1cccc([C@@H]2Oc3ccc(OC)cc3/C(=N/O[C@@H](C)c3cc(-c4c(C)cc(C)cc4C)no3)[C@@H]2O)c1,–,inactive: 3.86% [at 12.8 µM]
Oc1cccc(Nc2nc(-c3ccccc3Cl)nc3ccccc23)c1,active: 1 µM,–

Structure (SMILES),Potency,"activity change, negative = inhibition"
CCOc1ccc(C(=O)OCC(=O)Nc2cc(C)on2)cc1OCC,–,inconclusive: 30.1% [activator]
Cn1c(SC(C(=O)Nc2ccc(F)cc2)c2ccccc2)nc2ccccc21 (stereo unspecified),"inconclusive [activator, partial curve]",–
Cc1noc(/C=C/c2ccccc2F)c1S(=O)(=O)N1CCC(C(=O)N2CCN(C)CC2)CC1,"inconclusive [inhibitor, single point]",–
O=c1oc2c(CN3CCOCC3)c(O)ccc2c2c1CCCC2,"inconclusive [activator, partial curve]",–
Nc1nc(C23CC4CC(CC(C4)C2)C3)cs1,"inconclusive [inhibitor, partial curve]",–
O=C(c1cc2nc(-c3ccc(F)cc3)cc(C(F)(F)F)n2n1)N1CCCCC1c1cccnc1 (stereo unspecified),"inconclusive [activator, single point]",–
O=C(CCC1CCCCC1)NCCN1C2=NC[C@H](Cc3ccc(O)cc3)N2C[C@H]1Cc1ccc(O)cc1,"inconclusive [inhibitor, partial curve]",–
CCC(C)n1c(SCC(=O)NC(=O)c2cccn2C)nc2ccccc2c1=O (stereo unspecified),"inconclusive [activator, single point]",–
COc1cc(/C=C2\SC(=S)N(CC(=O)Nc3ccc(O)cc3)C2=O)cc(OC)c1OC,"inconclusive [inhibitor, single point]",–
O=C(CSc1ccc2nnc(CCNC(=O)c3ccccc3)n2n1)NC1CCCC1,"inconclusive [activator, single point]",–
O=C(CCCCCNc1nc(=S)[nH]c2ccccc12)NCc1ccccc1Cl,"inconclusive [inhibitor, partial curve]",–
CC(=O)c1c(O)cccc1O,inactive,–
CCOc1ccc(S(=O)(=O)N2CCN(c3ccccc3F)CC2)c2cccnc12,"inconclusive [inhibitor, partial curve, poor fit]",–
COC(=O)CSc1nc2cc3c(cc2cc1C)OCCO3,"inconclusive [inhibitor, single point]",–
COc1ccccc1NC(=O)CSc1nc2sc(C)c(C)c2c(=O)n1Cc1ccco1,"inconclusive [activator, partial curve]",–
COc1ccc(Cn2c(CCC(=O)Nc3ccccc3OC)nc3cccnc32)cc1,"inconclusive [activator, partial curve]",–
O=C(CN1CCN(C2CCS(=O)(=O)C2)CC1)N1N=C(c2ccc(Cl)cc2)CC1c1ccco1 (stereo unspecified),inactive,–
CCC(C)(C)n1nnnc1C(c1cccs1)N1CCN(c2nc3ccccc3s2)CC1 (stereo unspecified),"inconclusive [inhibitor, single point]",–
CN(C)c1ccc(/C=N/n2ncc3ccccc32)cc1,"inconclusive [activator, single point]",–
CCCCC(=O)NC(c1ccc(N(C)C)cc1)c1ccc2cccnc2c1O (stereo unspecified),"inconclusive [inhibitor, full curve, poor fit]",–
Cc1ccc(C2NC(=O)c3c(sc4c3CCN(C)C4)N2)s1 (stereo unspecified),"inconclusive [activator, single point]",–
CC(=O)Nc1ccc(C(=O)OCCc2ccccc2)cc1,inactive,–

# From PubChem BioAssay AID2101 (National Center for Advancing Translational Sciences (NCATS), 2009)
